This note sets out measurements from publication PMC6077249, “Insights into Centromere DNA Bending Revealed by the Cryo-EM Structure of the Core Centromere Binding Factor 3 with Ndc10” (Cell Reports, 2017).

Series [1] addresses T1, Ndc10 D1-2 (domains 1 and 2 of Ndc10, residues 1–554) (S. cerevisiae, UniProt P32504 1-554).
T1 construct: Ndc10, S. cerevisiae, domains 1 and 2, residues 1-554, cloned from yeast genomic DNA; also called monomeric construct of Ndc10; source: S. cerevisiae (pRS426, same expression system), purified (StrepTrap HP, Mono Q, Superdex 200)
T1 sequence (looked up): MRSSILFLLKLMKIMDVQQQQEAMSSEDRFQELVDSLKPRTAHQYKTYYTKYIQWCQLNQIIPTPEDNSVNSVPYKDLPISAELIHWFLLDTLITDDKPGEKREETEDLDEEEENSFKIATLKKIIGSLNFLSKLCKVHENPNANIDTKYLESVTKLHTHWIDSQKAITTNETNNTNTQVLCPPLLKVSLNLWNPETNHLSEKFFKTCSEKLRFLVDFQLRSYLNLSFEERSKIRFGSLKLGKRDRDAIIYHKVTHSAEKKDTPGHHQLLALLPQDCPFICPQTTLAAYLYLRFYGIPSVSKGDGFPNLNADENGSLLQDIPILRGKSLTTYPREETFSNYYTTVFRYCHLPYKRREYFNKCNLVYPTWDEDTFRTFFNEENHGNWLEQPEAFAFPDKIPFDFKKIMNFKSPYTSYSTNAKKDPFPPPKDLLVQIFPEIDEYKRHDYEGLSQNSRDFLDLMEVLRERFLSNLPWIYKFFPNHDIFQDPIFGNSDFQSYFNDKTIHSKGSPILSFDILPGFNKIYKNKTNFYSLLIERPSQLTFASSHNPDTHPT
Briefly: cryo-EM structure; purified CBF3CCΔN and Ndc10 D1-2 mixed at 1:1 molar ratio, 4°C 1 hr, co-eluted on Superose 6 Increase; 0.15 mg/mL on grids; 4.2 Å map, 4.4 Å focused refinement. Conditions: both partners purified.

Series [2] concerns the molecule itself. The series is described as follows: cryo-EM structure; CBF3CCΔN co-expressed in S. cerevisiae and co-purified; 0.12 and 0.24 mg/ml on UltrAuFoil grids; 3.7 Å map; buffer 15 mM Tris pH 8.0, 200 mM NaCl, 2 mM DTT.

B1: Skp1 (natural protein)
chain: not shown
notes: Skp1, S. cerevisiae
Consider B1, for which the binding result in series [1] was “binds”.

B2: Ctf13 (natural protein)
chain: not shown
notes: Ctf13, S. cerevisiae F box / LRR protein
On to B2, for which the binding result in series [1] is reported as “binds”.

B3: Cep3ΔN (N-terminally truncated Cep3, […], lacking the Zn2Cys6 domain) (domain or fragment)
chain: not shown
notes: Cep3, S. cerevisiae, […] (Zn2Cys6 domain removed); Homodimer; 'proximal' and 'distal' monomers in the CBF3 core complex; also called (Cep3ΔN)2
As for B3, the binding result in series [2] is on record as “binds”.
